# Measured values as given in PubChem BioAssay AID1347073 (National Center for Advancing Translational Sciences (NCATS), 2019).
# About 200 (0.44%) of roughly 45,000 compounds were called active. Inconclusive results (about 7%) are left out. The call rests on the fitted dose curve; in most records, active means well fitted activation curve with a large enough effect; inconclusive means small, poorly fitted or top-dose-only effect; inactive means no such curve, though single readings can be large or run the other way. The list shows a part of the results.
# Assay: qHTS of TDP-43 Inhibitors: NCGC Sytravon Library Screen; further: 0% is about no effect; nearly all actives have a fitted effect of over 55% in size
# Conditions: yeast TDP-43 toxicity rescue, BacTiter-Glo growth, 24 h; series mostly up to 46.1 µM; growth rescue (activation): at the top concentration
# How it was run: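 TDP-43-expressing yeast, pregrown in raffinose, seeded at OD600 0.02 in galactose medium with compound for 24 hr at 30 deg C. Growth read by BacTiter-Glo luminescence, so rescue of toxicity appears as activation.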
row,SMILES,growth rescue (activation)
1,O=C(NCCc1ccccc1)c1c(F)cccc1F,inactive: 20.1%
2,COc1ccc(NC2CCCN(C(=O)c3oc(C)cc3C)C2)cc1OC (centres undefined),inactive: -3.19%
3,Cc1ccc(S(=O)(=O)N2CCN(C(=O)CCn3nc(C)c(C)c3C)CC2)cc1C,inactive: 5.79%
4,Cc1ccc(NS(=O)(=O)c2cccc(C(=O)N/N=C/c3ccc4c(c3)OCCO4)c2)c(C)c1,inactive: 16.9%
5,CCCCn1cnc2cc(C)c(C)cc21,inactive: 8.34%
6,COc1ccc(OCCC(=O)Nc2nccs2)cc1,inactive: 18.8%
7,O=C(CCCC(=O)N/N=C\c1ccccn1)N/N=C\c1ccccn1,inactive: 4.22%
8,O=C(c1cccc([N+](=O)[O-])c1)N1CCN(c2ccccn2)CC1,inactive: 6.72%
9,COc1ccc(C(=O)Nc2ccc(NC(=O)CSc3nnc(-c4ccncc4)n3C)cc2)cc1,inactive: 3.13%
10,CNc1ncnc2c1ncn2[C@H]1CN(Cc2ccc(-c3ccccc3)cc2)C[C@@H](CO)O1,inactive: 7.02%
11,O=C(Nc1ccc(Cl)cc1F)c1ccccc1Br,inactive: 31%
12,O=C(/C=C/c1cn(-c2ccccc2)nc1-c1ccc2c(c1)OCCO2)NCCCN1CCOCC1,inactive: 11.3%
13,CCCNC(=O)COC(=O)c1cc(C)nc2ccccc12,inactive: 0.142%
14,COC(=O)c1cc2oc3ccccc3c2n1Cc1c(C)cc(C)cc1C,inactive: -6.68%
15,Cc1ccc(NC(=O)c2ccc3snnc3c2)cc1,inactive: -3.06%
16,CCCOC(=O)CSc1nnc(-c2ccccc2Cl)o1,inactive: 0.483%
17,CCCCN(C(=O)c1cnccn1)c1c(N)n(CCC)c(=O)[nH]c1=O,inactive: 8.37%
18,CCOC(=O)/C(C#N)=C/Nc1cc(OC)ccc1OC,inactive: 27.8%
19,COc1ccc(CNCc2ccncc2)c(OC)c1,inactive: 12.8%
20,CC(O/N=C/c1ccc(OC(F)F)cc1)C(=O)Nc1cccc(S(=O)(=O)N2CCOCC2)c1 (centres undefined),inactive: 16.6%
21,NC(=O)c1ccc(NC(=O)COC(=O)CCSc2ccccc2)cc1,inactive: 7.66%
22,CC(C)CNC(=O)C1(C)CCCCCN1C(=O)c1cc(C#N)cs1 (centres undefined),inactive: 11.3%
23,CC1(C)CC(=O)C(C=Nc2ccc(C(=O)c3ccccc3)cc2N=CC2=C(O)CC(C)(C)CC2=O)=C(O)C1,inactive: -8.27%

row,SMILES,growth rescue (activation)
1,C=CCNC(=O)c1ccc2c(c1)N(CC)C(=O)c1ccccc1S2,inactive: 3.03%
2,O=C(Nc1cc(Cl)ccc1O)c1cc(-c2ccco2)on1,inactive: 26.6%
3,COc1ccc(CCN(C)C(=O)c2cnc(C)cn2)cc1OC,inactive: 11.6%
4,COc1cc(NC(=O)NCCN2CCN(c3ccccc3)CC2)cc(OC)c1OC,inactive: 13.7%
5,CCOc1ccc(Br)cc1S(=O)(=O)Nc1ccc(S(=O)(=O)Nc2cc(C)on2)cc1,inactive: 6.7%
6,Cc1ccc(S(=O)(=O)N2CCN(CCNC(=O)C(=O)NCc3ccccc3)CC2)cc1,inactive: -13.6%
7,O=C(NC(=S)N1CCN(Cc2ccccc2)CC1)c1ccco1,inactive: 11.6%
8,Cc1nsc(Nc2ccccc2)c1C#N,inactive: 11.5%
9,Cc1cc(=O)[nH]c(N/N=C/C=C/c2ccccc2)n1,inactive: 12.1%
10,O=C(O)CCn1cc(/C=C2\NC(=S)N(c3ccccc3)C2=O)c(-c2ccc(Br)cc2)n1,inactive: 14.5%
11,Cc1cc(=O)oc2cc(OCCC[n+]3ccccc3)ccc12,inactive: 0.602%
12,Cc1ccccc1-c1noc(CNC(=O)c2ccco2)n1,inactive: 26.3%
13,CC(C)[C@H](NC(=O)OCc1ccccc1)C(=O)OCC(=O)c1ccccc1,inactive: 24%
14,O=C(CSc1nnc(C2CC2)n1Cc1ccccc1)N1CCNC1=O,inactive: 7.6%
15,Cc1ccc(S(=O)(=O)NC(=O)c2cc(C)n(CCCN3CCOCC3)c2C)cc1,inactive: 18%
16,COc1ccccc1NC(=O)Cn1c(CCC(=O)O)ccc1-c1ccccc1,inactive: -7.76%
17,COc1ccccc1C(=O)NC(=Nc1nc2ccccc2o1)NC(=O)c1ccccc1OC,inactive: 10.1%
18,c1ccc(CN2CC[C@@H](Nc3nccn4ccnc34)C2)cc1,inactive: -11.3%
19,COCCCn1c(C(=O)NCCN2CCOCC2)cc2c(=O)n3ccccc3nc21,inactive: 9.63%
20,CCOC(=O)c1ccc(N/C(=N\S(=O)(=O)c2ccc(F)cc2F)c2ccccc2)cc1,inactive: 26.8%
21,Cc1cc(C)c(NC(=O)Cc2ccc(-n3cccc3)cc2)c(C)c1,inactive: 15.3%
22,CCN(CC)C(=O)C(Sc1nnnn1-c1ccc(O)cc1)c1ccccc1 (centres undefined),inactive: 11.6%
23,COc1ccc(C2c3c(C)nn(-c4ccccc4)c3NC(=O)N2c2ccccc2)cc1 (centres undefined),inactive: 4.79%

row,SMILES,growth rescue (activation)
1,CCOC(=O)C1=C(O)C(=O)N(Cc2cccnc2)C1c1ccc(OC)cc1 (centres undefined),inactive: -6.96%
2,O=C(COC(=O)c1cccc(Br)c1)NCc1ccco1,inactive: 18.5%
3,COCCN1CCN(C(=O)C2CCC(=O)N(Cc3cccc(C(F)(F)F)c3)C2)CC1 (centres undefined),inactive: 18.9%
4,Cn1c(NCCc2ccncc2)nc2cc(-c3cccc(Cl)c3)sc2c1=O,inactive: 24%
5,Cc1cc(N/C(=N/S(=O)(=O)c2ccc(F)cc2)c2ccccc2)n(-c2ccccc2)n1,inactive: 3.23%
6,CCCCc1nc2sc3c(=O)[nH]cnc3c2c2c1CCCC2,inactive: -8.03%
7,COc1ccc(C(=O)Nc2ccccc2C(=O)N2CCCCCC2)cc1,inactive: 21.4%
8,O=S(=O)(c1ccccc1)N(CC(O)CN1CCOCC1)c1ccccc1 (centres undefined),inactive: 8.68%
9,CN(C)c1ccc(P(=O)(Nc2ccccc2)N2CCOCC2)c(NC(=O)c2cccs2)c1 (centres undefined),inactive: -27.4%
10,CS(=O)(=O)c1ccc(NCCN2CCOCC2)c([N+](=O)[O-])c1,inactive: 1.68%
11,O=C(c1cccc([N+](=O)[O-])c1)c1ccc2[nH]c(=O)[nH]c2c1,inactive: 0.927%
12,Cc1cc(C)n(C(C)CNC(=O)c2ccc3c(c2)OCO3)n1 (centres undefined),inactive: 5.64%
13,Cc1ccc(N2C(=O)CCC(C(=O)O)C2c2cccs2)cc1 (centres undefined),inactive: -6.99%
14,COc1ccc(S(=O)(=O)Nc2ccccn2)cc1C(=O)Nc1ccccc1,inactive: 0.927%
15,Cc1ccc2nc(SC(C)C(=O)NC3CCCc4ccccc43)[nH]c2c1 (centres undefined),inactive: 32.3%
16,Cn1cccc1C(=O)OCC(=O)N1CCN(c2ccccc2)CC1,inactive: 9.25%
17,CCC(=O)Nc1cccc2cccnc12,inactive: -12.7%
18,COc1ccc2nc(C)cc(SCC(=O)OC(C)C)c2c1,inactive: -13.6%
19,CCc1ccc2c(CN3CCC(C(=O)OC)CC3)cc(=O)oc2c1,inactive: 3.85%
20,CCc1nnc(NC(=O)C2CCN(S(=O)(=O)Cc3ccccc3)CC2)s1,inactive: 29.7%
21,Cc1cc(C)nc(NN=CC2=C(N3CCOCC3)/C(=C/c3ccc(Cl)cc3)CC2)n1,inactive: 1.11%
22,COc1ccccc1-c1nc(S(=O)(=O)c2ccccc2)c(N2CCCCC2)o1,inactive: -5.57%
23,O=C(NC1CCN(C(=O)Nc2ccc(F)cc2)CC1)c1ccccc1F,inactive: 7.64%
